The supplement of paper PMC8728848
This is one part of the list.

Tests used:
Experiment in all cases: glycan array binding signal (z-score within array); higher = stronger binding
Details in all cases: glycan notation: IUPAC condensed, linker removed; mutation: R144S
Fuc(a1-2)Gal = biological target: Fuc(a1-2)Gal
How it was run: (§1)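 The binding signal is a Z-score computed within each array. Data were drawn from 3228 arrays in the Consortium for Functional Glycomics database, restricted to those with a known protein sequence. Scores were averaged over arrays of the same protein sequence at different concentrations or buffers, and over linkers, and negative values can be taken as non-binding.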

Fuc(a1-2)Gal(b1-3)GalNAc = biological target: Fuc(a1-2)Gal(b1-3)GalNAc
How it was run: as §1

[1] = biological target: Fuc(a1-2)Gal(b1-3)GalNAc(a1-3)[Fuc(a1-2)]Gal(b1-4)Glc
How it was run: as §1

[2] = biological target: Fuc(a1-2)Gal(b1-3)GalNAc(a1-3)[Fuc(a1-2)]Gal(b1-4)GlcNAc
How it was run: as §1

[3] = biological target: Fuc(a1-2)Gal(b1-3)GalNAc(b1-3)Gal
How it was run: as §1

[4] = biological target: Fuc(a1-2)Gal(b1-3)GalNAc(b1-3)Gal(a1-4)Gal(b1-4)Glc
How it was run: as §1

[5] = biological target: Fuc(a1-2)Gal(b1-3)GalNAc(b1-4)[Neu5Ac(a2-3)]Gal(b1-4)Glc
How it was run: as §1

Fuc(a1-2)Gal(b1-3)GlcNAc = biological target: Fuc(a1-2)Gal(b1-3)GlcNAc
How it was run: as §1

[6] = biological target: Fuc(a1-2)Gal(b1-3)GlcNAc(b1-2)Man(a1-3)[Fuc(a1-2)Gal(b1-3)GlcNAc(b1-2)Man(a1-6)]Man(b1-4)GlcNAc(b1-4)GlcNAc
How it was run: as §1

[7] = biological target: Fuc(a1-2)Gal(b1-3)GlcNAc(b1-3)Gal(b1-4)Glc
How it was run: as §1

[8] = biological target: Fuc(a1-2)Gal(b1-3)GlcNAc(b1-3)[Fuc(a1-3)[Gal(b1-4)]GlcNAc(b1-6)]Gal(b1-4)Glc
How it was run: as §1

[9] = biological target: Fuc(a1-2)Gal(b1-3)[Fuc(a1-4)]GlcNAc
How it was run: as §1

[10] = biological target: Fuc(a1-2)Gal(b1-3)[Fuc(a1-4)]GlcNAc(b1-2)Man(a1-3)[Fuc(a1-2)Gal(b1-3)[Fuc(a1-4)]GlcNAc(b1-2)Man(a1-6)]Man(b1-4)GlcNAc(b1-4)GlcNAc
How it was run: as §1

[11] = biological target: Fuc(a1-2)Gal(b1-3)[Fuc(a1-4)]GlcNAc(b1-3)[Fuc(a1-3)[Gal(b1-4)]GlcNAc(b1-6)]Gal(b1-4)Glc
How it was run: as §1

[12] = biological target: Fuc(a1-2)Gal(b1-3)[Fuc(a1-4)]GlcNAc(b1-3)[Gal(b1-4)GlcNAc(b1-6)]Gal(b1-4)Glc
How it was run: as §1

Fuc(a1-2)Gal(b1-4)Glc = biological target: Fuc(a1-2)Gal(b1-4)Glc
How it was run: as §1

Fuc(a1-2)Gal(b1-4)Glc6S = biological target: Fuc(a1-2)Gal(b1-4)Glc6S
How it was run: as §1

Fuc(a1-2)Gal(b1-4)GlcNAc = biological target: Fuc(a1-2)Gal(b1-4)GlcNAc
How it was run: as §1

[13] = biological target: Fuc(a1-2)Gal(b1-4)GlcNAc(b1-2)Man(a1-3)[Fuc(a1-2)Gal(b1-4)GlcNAc(b1-2)Man(a1-6)]Man(b1-4)GlcNAc(b1-4)GlcNAc
How it was run: as §1

[14] = biological target: Fuc(a1-2)Gal(b1-4)GlcNAc(b1-3)Gal(b1-4)GlcNAc
How it was run: as §1

[15] = biological target: Fuc(a1-2)Gal(b1-4)GlcNAc(b1-3)Gal(b1-4)GlcNAc(b1-3)Gal(b1-4)GlcNAc
How it was run: as §1

[16] = biological target: Fuc(a1-2)Gal(b1-4)GlcNAc(b1-3)GalNAc
How it was run: as §1

[17] = biological target: Fuc(a1-2)Gal(b1-4)GlcNAc6S
How it was run: as §1

[18] = biological target: Fuc(a1-2)Gal(b1-4)[Fuc(a1-3)]GlcNAc
How it was run: as §1

[19] = biological target: Fuc(a1-2)Gal(b1-4)[Fuc(a1-3)]GlcNAc(b1-2)Man(a1-3)[Fuc(a1-2)Gal(b1-4)[Fuc(a1-3)]GlcNAc(b1-2)Man(a1-6)]Man(b1-4)GlcNAc(b1-4)GlcNAc
How it was run: as §1

[20] = biological target: Fuc(a1-2)Gal(b1-4)[Fuc(a1-3)]GlcNAc(b1-3)Gal(b1-4)[Fuc(a1-3)]GlcNAc
How it was run: as §1

[21] = biological target: Fuc(a1-2)Gal(b1-4)[Fuc(a1-3)]GlcNAc(b1-3)Gal(b1-4)[Fuc(a1-3)]GlcNAc(b1-3)Gal(b1-4)[Fuc(a1-3)]GlcNAc
How it was run: as §1

Fuc(a1-2)Gal6S(b1-4)Glc = biological target: Fuc(a1-2)Gal6S(b1-4)Glc
How it was run: as §1

[22] = biological target: Fuc(a1-2)Gal6S(b1-4)Glc6S
How it was run: as §1

[23] = biological target: Fuc(a1-2)Gal6S(b1-4)GlcNAc
How it was run: as §1

Fuc(a1-2)[Gal(a1-3)]Gal = biological target: Fuc(a1-2)[Gal(a1-3)]Gal
How it was run: as §1

[24] = biological target: Fuc(a1-2)[Gal(a1-3)]Gal(b1-3)GlcNAc
How it was run: as §1

[25] = biological target: Fuc(a1-2)[Gal(a1-3)]Gal(b1-3)GlcNAc(b1-2)Man(a1-3)[Fuc(a1-2)[Gal(a1-3)]Gal(b1-3)GlcNAc(b1-2)Man(a1-6)]Man(b1-4)GlcNAc(b1-4)GlcNAc
How it was run: as §1

[26] = biological target: Fuc(a1-2)[Gal(a1-3)]Gal(b1-4)Glc
How it was run: as §1

[27] = biological target: Fuc(a1-2)[Gal(a1-3)]Gal(b1-4)GlcNAc
How it was run: as §1

[28] = biological target: Fuc(a1-2)[Gal(a1-3)]Gal(b1-4)GlcNAc(b1-2)Man(a1-3)[Fuc(a1-2)[Gal(a1-3)]Gal(b1-4)GlcNAc(b1-2)Man(a1-6)]Man(b1-4)GlcNAc(b1-4)GlcNAc
How it was run: as §1

[29] = biological target: Fuc(a1-2)[Gal(a1-3)]Gal(b1-4)[Fuc(a1-3)]GlcNAc
How it was run: as §1

[30] = biological target: Fuc(a1-2)[Gal(a1-4)]Gal(b1-4)GlcNAc
How it was run: as §1

[31] = biological target: Fuc(a1-2)[GalNAc(a1-3)]Gal
How it was run: as §1

[32] = biological target: Fuc(a1-2)[GalNAc(a1-3)]Gal(b1-3)GalNAc(a1-3)[Fuc(a1-2)]Gal(b1-4)GlcNAc
How it was run: as §1

[33] = biological target: Fuc(a1-2)[GalNAc(a1-3)]Gal(b1-3)GlcNAc
How it was run: as §1

[34] = biological target: Fuc(a1-2)[GalNAc(a1-3)]Gal(b1-3)GlcNAc(b1-2)Man(a1-3)[Fuc(a1-2)[GalNAc(a1-3)]Gal(b1-3)GlcNAc(b1-2)Man(a1-6)]Man(b1-4)GlcNAc(b1-4)GlcNAc
How it was run: as §1

[35] = biological target: Fuc(a1-2)[GalNAc(a1-3)]Gal(b1-4)Glc
How it was run: as §1

[36] = biological target: Fuc(a1-2)[GalNAc(a1-3)]Gal(b1-4)GlcNAc
How it was run: as §1

[37] = biological target: Fuc(a1-2)[GalNAc(a1-3)]Gal(b1-4)GlcNAc(b1-2)Man(a1-3)[Fuc(a1-2)[GalNAc(a1-3)]Gal(b1-4)GlcNAc(b1-2)Man(a1-6)]Man(b1-4)GlcNAc(b1-4)GlcNAc
How it was run: as §1

B1: Gal 3 (Homo sapiens), P17931 (protein)
chain: MADNFSLHDALSGSGNPNPQGWPGAWGNQPAGAGGYPGASYPGAYPGQAPPGAYPGQAPPGAYHGAPGAYPGAPAPGVYPGPPSGPGAYPSSGQPSAPGAYPATGPYGAPAGPLIVPYNLPLPGGVVPRMLITILGTVKPNANSILDFQRGNDVAFHFNPRFNENNRRVIVCNTKLDNNWGREERQSVFPFESGKPFKIQVLVEPDHFKVAVNDAHLLQYNHRVKKLNEISKLGISGDIDLTSASYTMI
- glycan array binding signal (z-score) (Fuc(a1-2)Gal): -0.355
- glycan array binding signal (z-score) (Fuc(a1-2)Gal(b1-3)GalNAc): -0.358
- glycan array binding signal (z-score) [1]: 1.18
- glycan array binding signal (z-score) [2]: 2.29
- glycan array binding signal (z-score) [3]: -0.35
- glycan array binding signal (z-score) [4]: -0.362
- glycan array binding signal (z-score) [5]: -0.359
- glycan array binding signal (z-score) (Fuc(a1-2)Gal(b1-3)GlcNAc): 0.739
- glycan array binding signal (z-score) [6]: 0.907
- glycan array binding signal (z-score) [7]: 1.1
- glycan array binding signal (z-score) [8]: 0.343
- glycan array binding signal (z-score) [9]: -0.352
- glycan array binding signal (z-score) [10]: -0.354
- glycan array binding signal (z-score) [11]: -0.35
- glycan array binding signal (z-score) [12]: 1.07
- glycan array binding signal (z-score) (Fuc(a1-2)Gal(b1-4)Glc): -0.315
- glycan array binding signal (z-score) (Fuc(a1-2)Gal(b1-4)Glc6S): -0.313
- glycan array binding signal (z-score) (Fuc(a1-2)Gal(b1-4)GlcNAc): 0.468
- glycan array binding signal (z-score) [13]: 1.48
- glycan array binding signal (z-score) [14]: 1.39
- glycan array binding signal (z-score) [15]: 1.05
- glycan array binding signal (z-score) [16]: -0.241
- glycan array binding signal (z-score) [17]: 0.788
- glycan array binding signal (z-score) [18]: -0.357
- glycan array binding signal (z-score) [19]: -0.342
- glycan array binding signal (z-score) [20]: -0.357
- glycan array binding signal (z-score) [21]: -0.361
- glycan array binding signal (z-score) (Fuc(a1-2)Gal6S(b1-4)Glc): -0.354
- glycan array binding signal (z-score) [22]: -0.357
- glycan array binding signal (z-score) [23]: -0.361
- glycan array binding signal (z-score) (Fuc(a1-2)[Gal(a1-3)]Gal): -0.355
- glycan array binding signal (z-score) [24]: 1.58
- glycan array binding signal (z-score) [25]: 4.81
- glycan array binding signal (z-score) [26]: 1.45
- glycan array binding signal (z-score) [27]: 1.9
- glycan array binding signal (z-score) [28]: 5.46
- glycan array binding signal (z-score) [29]: -0.358
- glycan array binding signal (z-score) [30]: -0.362
- glycan array binding signal (z-score) [31]: -0.357
- glycan array binding signal (z-score) [32]: 2.8
- glycan array binding signal (z-score) [33]: 3.22
- glycan array binding signal (z-score) [34]: 6.11
- glycan array binding signal (z-score) [35]: 2.4
- glycan array binding signal (z-score) [36]: 3.36
- glycan array binding signal (z-score) [37]: 5.95
